# Experimental data taken from PubChem BioAssay AID1508642 (National Center for Advancing Translational Sciences (NCATS), 2021).
# The campaign covered roughly 43,000 compounds. About 200 (0.47%) were called active. Roughly 12% stayed inconclusive and do not appear here. The call rests on the fitted dose curve; in most records, active means well fitted cell-killing curve with a large enough effect; inconclusive means small, poorly fitted or top-dose-only effect, or effect the other way; inactive means flat fitted curve, though single readings scatter. This is one part of the list.
# Assay: Cell viability qHTS assay in S16 Pmp22-F2sN cells; further: nearly all actives have a fitted effect of over 65% in size
# Settings: S16 Pmp22-F2sN Schwann cells (luciferase reporters placed in the Pmp22 gene) viability, CellTiter-Glo, 24 h; series mostly up to 57.5 µM; activity change, negative = cytotoxicity: at the top concentration
# Method in brief: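 Rat S16 Schwann reporter line, 24 h treatment with library compounds delivered at 23 nL per well. Cell viability by CellTiter-Glo luminescence.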
# On the % scale 0 is the no-effect control and ±100 the full control effect.
row,Compound,"activity change, negative = cytotoxicity"
1,CCc1ccc(S(=O)(=O)c2cn(C)c3cc(N4CCOCC4)c(F)cc3c2=O)cc1,inactive: -0.937%
2,Cc1c(Cl)cccc1-c1ccc(CNCCCSc2nnnn2C)o1,inactive: -2.46%
3,O=C1Nc2ccccc2Oc2cc(Oc3cccc(Cl)c3)ccc21,inactive: -1.66%
4,O=C(CCn1nc(-c2ccccc2)c2ccccc2c1=O)Nc1ccccc1,inactive: 1.36%
5,Cc1cccc(C)c1NC(=O)Nc1csc2c1CCCC2,inactive: -12.2%
6,Cc1ccc2nc(N(CCCN(C)C)C(=O)c3ccco3)sc2c1,inactive: 1.8%
7,Cc1ccc(-n2nc(CO)c(C(=O)NCc3ccccn3)n2)cc1,inactive: 4.08%
8,COc1ccc(-c2nc(-c3cc4cc(Br)ccc4oc3=O)cs2)cc1,inactive: -3.68%
9,COc1ccccc1N1CCN(c2nc3ccccc3n3cnnc23)CC1,inactive: 0.941%
10,Cc1cc(-c2ccc(C)c(S(=O)(=O)Nc3cccc(C)n3)c2)on1,inactive: -7.31%
11,COc1ccc(OCc2ccc(-c3nc(C#N)c(N4CCN(c5ccccc5)CC4)o3)o2)cc1,inactive: -14.8%
12,CCc1ccc(-n2nnc(-c3nsc(NC(=O)c4ccccc4Cl)n3)c2C)cc1,inactive: -4.5%
13,CCOC(=O)c1cc2c(=O)n3ccccc3nc2n(Cc2ccco2)c1=NC(=O)c1ccc(Br)cc1,inactive: -11.8%
14,Cc1ccc(NC(=O)c2nnn(Cc3ccccc3)c2N)cc1C,inactive: 6.1%
15,O=C(CSc1oc(-c2ccccc2)nc1S(=O)(=O)c1ccc(Br)cc1)c1ccccc1,inactive: -17.8%
16,COc1ccc(C)cc1NC(=O)COc1cc(=O)n(C)c2ccccc12,inactive: 10.7%
17,COc1ccc(NC(=O)c2ccco2)cc1NC(=O)COc1cccc(C)c1C,inactive: -6.59%
18,CCc1ccc(NC(=O)CN(C)S(=O)(=O)c2ccc3c(c2)c(=O)n(C)c(=O)n3C)cc1,inactive: 4.18%
19,Cc1ccccc1-c1nc(SCC(=O)NCc2ccc(F)cc2)c2c(=O)n(C)c(=O)n(C)c2n1,inactive: 10.2%
20,COc1ccc(-n2c(SCc3nc(-c4ccc(C)cc4)no3)nnc2-c2ccccc2)cc1,inactive: -21.2%
21,CCOC(=O)c1ccc(NC(=O)CN(Cc2ccc(C)cc2)S(=O)(=O)c2ccc(C)cc2)cc1,inactive: -20.7%

row,Compound,"activity change, negative = cytotoxicity"
1,COC(=O)c1nnn(-c2cccc(C)c2)c1N,inactive: 5.14%
2,Cc1ccccc1OCC(=O)Nc1ccc2oc(-c3ccc(F)cc3)nc2c1,inactive: 7.94%
3,CC1CN(C(=O)Nc2ccc(C(=O)NCc3ccccc3F)cc2)c2ccccc2S1 (stereo not drawn),inactive: -21.6%
4,COC(=O)c1ccc(NC(=O)CSc2n[nH]c(-c3ccccc3)n2)cc1,inactive: 13.3%
5,Fc1ccccc1N1CCN(Cc2nnc(-c3ccc4c(c3)OCO4)o2)CC1,inactive: -10.3%
6,CCOC(=O)c1ccc(N2C(=O)c3n[nH]c(-c4ccco4)c3C2c2ccc(OC)cc2OC)cc1 (stereo not drawn),inactive: -24.4%
7,CCN(CC)c1ccc(NC(=O)Cn2ncc3c(C)n(Cc4ccccc4F)c(C)c3c2=O)c(C)c1,inactive: 1.25%
8,COc1ccc(/C=C/C(=O)Nc2ccc(C)cc2)cc1,inactive: -2.2%
9,Cc1ccc(NC(=O)Cc2ccc(NC(=O)N3CCCCc4ccccc43)cc2)cc1Cl,inactive: -29.3%
10,CCCCOc1ccc(C(=O)NCC(c2ccc(Cl)cc2)N2CCOCC2)cc1 (stereo not drawn),inactive: -2.08%
11,Cc1cccc(C)c1-n1ncc(C(=O)NCCCN2CCCCC2)c1C1CCN(C(=O)OC(C)(C)C)CC1,inactive: -27.7%
12,Cc1c(C)n(Cc2ccccc2)c2ccc(C(=O)N3CCN(c4ccccc4F)CC3)cc12,inactive: 8.75%
13,Cc1nc2ccn(Cc3cccnc3)c(=O)c2cc1C(=O)N1CCN(c2ccccc2F)CC1,inactive: -1.86%
14,O=C(NCCc1ccc(Cl)cc1)c1cc(-c2ccccc2)n[nH]1,inactive: -11.9%
15,COc1ccc(SCc2cc(=O)c3ccc(C)c(C)c3[nH]2)cc1,inactive: 6.01%
16,Cc1ccc(Sc2ccc(N3CCCC(C(=O)Nc4ccc(Br)cc4)C3)nn2)cc1 (stereo not drawn),inactive: 4.63%
17,COc1ccc(C2=C(C)C(N3CCC(C(=O)NCc4ccc(C)o4)CC3)=NS2(=O)=O)cc1,inactive: 6.59%
18,CCOc1ccc(-c2nnc(SCC(=O)NC3CCCCC3)nc2-c2ccc(OCC)cc2)cc1,inactive: 24%
19,COc1ccc2c(c1)Cc1sc(NC(=O)c3ccccc3C)nc1-2,inactive: -18.1%
20,O=C(NC1CCCC1)c1ccc2c(=O)n(Cc3ccccc3)c(SCc3ccc([N+](=O)[O-])cc3)nc2c1,inactive: 6.57%
21,CCc1ccc(NC(=O)Nc2cn(C)c(=O)c3ccccc23)cc1,inactive: -15.6%

row,Compound,"activity change, negative = cytotoxicity"
1,CCN(CCCNC(=O)CSc1cc(=O)n(CC)c2ccccc12)c1ccccc1,inactive: -8.93%
2,CCc1ccc(-n2nc(CO)c(C(=O)NC(C)c3ccc(Cl)cc3)n2)cc1 (stereo not drawn),inactive: -3.35%
3,COc1cccc(CNC(=O)CN2C(=O)CCc3cc(S(=O)(=O)N4CCOCC4)ccc32)c1,inactive: -25.6%
4,COc1ccc(OC)c2sc(N(Cc3cccnc3)C(C)=O)nc12,inactive: -0.951%
5,CCOC(=O)N1CCN(Cc2nc3cc(NC(=O)CC)ccc3n2C(C)C)CC1,inactive: -16.7%
6,CCc1ccccc1NC(=O)Cn1nc(C(F)(F)F)c2c1CCC2,inactive: 15.5%
7,Cc1cc(C)c2c(CC(=O)Nc3ccccc3C(F)(F)F)coc2c1,inactive: 2.49%
8,COc1ccc(S(=O)(=O)c2c(O)c3ccc(C(=O)Nc4ccccc4)cc3[nH]c2=O)cc1,inactive: 18.1%
9,Cc1nn2c(=O)cc(COC(=O)c3cccs3)nc2s1,inactive: -25.8%
10,CSc1ccc(CCNC(=O)c2ccc3c(Cl)c4c(nc3c2)CCCC4)cc1,inactive: 21.2%
11,CCCSc1ncc(Cl)c(C(=O)Nc2nc3ccc(C)cc3s2)n1,inactive: 5.51%
12,CCOC(=O)c1ccccc1NC(=O)Cn1c(=O)n(Cc2nc(C)no2)c(=O)c2ccccc21,inactive: -0.0859%
13,CN(c1ccccc1C(=O)O)S(=O)(=O)c1ccc2[nH]c(=O)oc2c1,inactive: 9.74%
14,O=C(CCn1c(=O)c2ccccc2n(Cc2cccc(Cl)c2)c1=O)NCCc1ccccc1,inactive: 12.3%
15,Cc1cccc(NC(=O)C2CCN(c3nnc(C)c4c(C)n(-c5ccccc5)nc34)CC2)c1C,inactive: 12.9%
16,Cc1ccc(Cl)cc1NC(=O)C1CCCN(c2cnccn2)C1 (stereo not drawn),inactive: -5.15%
17,O=C(NCc1ccccc1)C(=O)NCC(c1ccco1)S(=O)(=O)c1cccs1 (stereo not drawn),inactive: 1.04%
18,CN(C)c1ccc(C(CNS(=O)(=O)c2ccc(Cl)cc2)N2CCOCC2)cc1 (stereo not drawn),inactive: 10.1%
19,O=C(NCC1(c2ccccc2)CCCC1)C(=O)Nc1cccc(Br)c1,inactive: 2.74%
20,Cc1cccc(C)c1NC(=O)Cn1nnc(C(=O)NCc2ccc(F)cc2)c1N,inactive: 1.89%
21,Cc1oc2c(C)c3oc(=O)c(CC(=O)N4CCCCC4)c(C)c3cc2c1C,inactive: 10.8%
